# Experimental data published in PubChem BioAssay AID1508642 (National Center for Advancing Translational Sciences (NCATS), 2021).
# Out of some 43,000 compounds screened, about 200 (0.47%) were called active. Inconclusive results (about 12%) are left out. The call rests on the fitted dose curve; in most records, active means well fitted cell-killing curve with a large enough effect; inconclusive means small, poorly fitted or top-dose-only effect, or effect the other way; inactive means flat fitted curve, though single readings scatter. The list shows a part of the results.
# Assay: Cell viability qHTS assay in S16 Pmp22-F2sN cells; further: nearly all actives have a fitted effect of over 65% in size
# Conditions: S16 Pmp22-F2sN Schwann cells (luciferase reporters placed in the Pmp22 gene) viability, CellTiter-Glo, 24 h; series mostly up to 57.5 µM; activity change, negative = cytotoxicity: at the top concentration
# Summary of the method: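 Rat S16 Schwann reporter line, 24 h treatment with library compounds delivered at 23 nL per well. Cell viability by CellTiter-Glo luminescence.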
# On the % scale 0 is the no-effect control and ±100 the full control effect.
row,SMILES,"activity change, negative = cytotoxicity"
1,Cc1ccc(-c2cc(NC(=O)c3cccc(C)c3)on2)cc1,inactive: 4.36%
2,CCc1nonc1NC(=O)c1oc2cc(C)c(C)cc2c1C,inactive: 2.04%
3,O=S(=O)(NCc1ccc(F)cc1)c1ccc2[nH]c3c(c2c1)CCCC3,inactive: -14.4%
4,CC1CCCCN1C(=O)CN1CCSc2ccccc21 (stereo not drawn),inactive: -5.07%
5,CCc1ccccc1NC(=O)CCCn1c(=O)c2cccn2c2ccccc21,inactive: -12.6%
6,COc1cccc(-n2c(SCC(N)=O)nc3c(oc4ccccc43)c2=O)c1,inactive: 6.72%
7,COc1ccc(NC(=O)C2Cc3ccccc3CN2S(=O)(=O)c2ccccc2)cc1OC (stereo not drawn),inactive: -0.632%
8,COc1ccc(C(=O)Oc2ccc(C(c3c(C)[nH][nH]c3=O)c3c(C)[nH][nH]c3=O)cc2)cc1,inactive: 7.37%
9,CCc1cccc(-n2c(=O)c3cccnc3n2CC(=O)Nc2ccc(OC)c(Cl)c2)c1,inactive: -18.1%
10,Cc1ccc(NC(=O)c2cnc3cc(C)ccn3c2=O)c(C)c1,inactive: 7.36%
11,CCCCSc1nc(-c2cccc(OC)c2)nc2c1Cc1c(CO)cnc(C)c1O2,inactive: 25.5%
12,COc1ccc(OC)c(NC(=O)C2CCN(S(=O)(=O)c3c(C)noc3/C=C/c3ccc(C)cc3)CC2)c1,inactive: 25.4%
13,CC1CCCCN1CCCNC(=O)c1sc2ncccc2c1-n1cccc1 (stereo not drawn),inactive: 3.16%
14,CCC(C)n1c(=N)c(C(=O)NCc2ccco2)cc2c(=O)n3cc(C)ccc3nc21 (stereo not drawn),inactive: 21.2%
15,COc1cccc(NC(=O)Cn2nc(-c3ccncc3)ccc2=O)c1,inactive: 1.73%
16,CNC(=O)C1CCC(Cn2c(=O)c3sccc3n(CC(=O)Nc3cc(C)cc(C)c3)c2=O)CC1 (stereo not drawn),inactive: 0.143%
17,O=C(c1c[nH]c2ccc(S(=O)(=O)Nc3ccccc3F)cc2c1=O)N1CCCCCC1,inactive: 10.5%
18,CC(C)c1ccc(C(=O)CC2(O)C(=O)N(CCc3ccccc3)c3ccc(Cl)cc32)cc1 (stereo not drawn),inactive: 24.2%
19,CCOc1ccc(NC(=O)C(=O)NCCc2sc(-c3ccc(C)cc3)nc2C)cc1,inactive: 14.7%
20,CCOCCCNC(=O)C1CCN(c2nc3ccc(Cl)cc3[nH]2)CC1,inactive: -2.13%
21,O=C(c1cnn(-c2ccc(F)cc2)c1-n1cccc1)N1CCN(c2cccc(Cl)c2)CC1,inactive: -1.23%

row,SMILES,"activity change, negative = cytotoxicity"
1,Cc1ccc(C(=O)Nc2cc(-c3nc4cc(Cl)ccc4o3)ccc2C)c(C)c1,inactive: 0.072%
2,COc1ccc(Cn2c(CNS(=O)(=O)c3ccc(Cl)s3)nc3cccnc32)cc1,inactive: -8.82%
3,O=S(=O)(NCc1csc(-c2ccccc2)n1)c1ccccc1,inactive: 0.604%
4,Cc1cccc(Cn2c(CN3CCC(C(=O)NCc4ccccc4Cl)CC3)cc3ccccc32)c1,inactive: -11.5%
5,CCCN1C(=O)c2[nH]nc(-c3ccc(OC)cc3)c2C1c1ccccn1 (stereo not drawn),inactive: 2.62%
6,COC(=O)c1sc(N2C(=O)c3oc4cc(C)c(C)cc4c(=O)c3C2c2ccccc2F)nc1C (stereo not drawn),inactive: 2.24%
7,CC(=O)Nc1ccc(S(=O)(=O)N2CCN(c3ccc(C)c(C)c3)CC2)cc1,inactive: -7.47%
8,Cc1cc(N2CCN(C)CC2)nc2ccc(NC(=O)c3ccccc3F)cc12,inactive: -20.1%
9,O=c1c2cccnc2n(Cc2ccc(Cl)cc2)c(=O)n1Cc1ccc(F)cc1,inactive: 12.3%
10,CNC(=O)c1cccc(-n2c(C)nc3cccnc32)c1C,inactive: 0.68%
11,CCCSc1nnc(NC(=O)Cc2coc3cc(C)ccc23)s1,inactive: 1.18%
12,CC(=O)c1ccc(NC(=O)CSc2nc3c(=O)n(C)c(=O)n(C)c3n2C)cc1,inactive: 2.88%
13,Cc1cc(OCC(=O)Nc2ccc(C(=O)OC3CCCCC3)cc2)ccc1Cl,inactive: 1.95%
14,O=C(CSc1nnc2[nH]c(=O)cc(-c3ccccc3)n12)Nc1ccccc1C(F)(F)F,inactive: 1.46%
15,Cc1cccc(NC(=O)Nc2ccc(C)c(C)c2)n1,inactive: 1.01%
16,COc1ccc(CCNC(=O)c2cc3c(=O)n4ccccc4nc3n2C)cc1,inactive: 3.91%
17,CCc1ccc(NC(=O)CSC2=Nc3ccccc3C3=NC(CC(=O)NCc4cccs4)C(=O)N23)cc1 (stereo not drawn),inactive: 4.22%
18,COc1cccc(N2CCN(C(=O)c3ccc4c(Cl)c5c(nc4c3)CCCC5)CC2)c1,inactive: 25.2%
19,CCC(Cn1nnc2ccccc2c1=O)NC(=O)Nc1cc(OC)cc(OC)c1 (stereo not drawn),inactive: 1.86%
20,Cc1cc2c(cc3c(SCc4cccc(Cl)c4)nnc(C)n32)o1,inactive: 1.73%
21,COc1ccc(NC(=O)Cn2cc(S(=O)(=O)c3ccccc3)c(=O)c3cc(C)ccc32)cc1Cl,inactive: -1.56%

row,SMILES,"activity change, negative = cytotoxicity"
1,CCc1cccc(C)c1NC(=O)c1cc2ccccc2o1,inactive: -18.5%
2,Cn1cc(S(=O)(=O)c2ccccc2)c(=O)c2cc(F)c(N3CCCC3)cc21,inactive: -0.941%
3,Cc1cc(S(=O)(=O)NCCc2csc(-c3cccc(F)c3)n2)ccc1F,inactive: -12.8%
4,CCCC(=O)OC1=C(C(C)=O)N(Cc2ccccc2)S(=O)(=O)c2ccccc21,inactive: -16%
5,O=C1CCSC2(C(=O)N(Cc3ccccc3)c3ccccc32)N1c1ccccc1 (stereo not drawn),inactive: 3.65%
6,CCCCOc1ccc(S(=O)(=O)n2nc(C)c(S(=O)(=O)N3CCCCCC3)c2C)cc1,inactive: -1.46%
7,O=C(NCCCN1CCN(c2ccccc2F)CC1)c1sc2ncccc2c1-n1cccc1,inactive: -24.2%
8,CCCCNC(=O)c1cnc2c(-c3ccc(OCC)c(OCC)c3)c(C)nn2c1-c1ccccc1,inactive: 4.2%
9,O=C(CCS(=O)(=O)c1cc2c(cc1Cl)NC(=O)CO2)NCc1ccccc1,inactive: 5.22%
10,O=C(Cn1nnc(-c2cccc(C(F)(F)F)c2)n1)NCc1ccc(F)cc1,inactive: -0.684%
11,CCc1ccc(CNC(=O)c2cc3cc4ccc(OC)cc4nc3o2)cc1,inactive: 16.6%
12,Cc1ccc(OCc2cc(=O)n3c(-c4ccccc4)csc3n2)cc1,inactive: 13.1%
13,CCN(CC)S(=O)(=O)c1ccc2c(c1)c(=O)c(C(=O)N1CCN(c3ccccc3OC)CC1)cn2C,inactive: 2.32%
14,CC(C)CCNC(=O)Cn1cc(S(=O)(=O)Cc2ccc(F)cc2)c2ccccc21,inactive: -16.4%
15,COc1cc(NC(=O)Nc2c[nH]c(=O)[nH]c2=O)cc(OC)c1OC,inactive: 12.5%
16,Cc1ccc(NC(=O)C(=O)NCC(c2ccc3c(c2)OCO3)N2CCN(C)CC2)cc1C (stereo not drawn),inactive: -6.67%
17,Cc1c(C(=O)Oc2ccc(Br)cc2)sc2ncn(Cc3ccccc3F)c(=O)c12,inactive: 5.98%
18,COc1ccc(-c2cc(C(=O)NCc3ccc(C)cc3)c3cc(C(C)C)ccc3n2)cc1,inactive: 1.98%
19,Cn1c(=O)n(C)c2cc(N3CCOCC3)c(NS(=O)(=O)c3ccc(F)cc3)cc21,inactive: -1.91%
20,O=C1CN(C(=O)c2c(F)cccc2Cl)C(c2ccc(F)cc2)c2cc(Br)ccc2N1 (stereo not drawn),inactive: -26.9%
21,Cc1ccc2c(c1)c1c(c(=O)n(-c3ccccc3)c(=O)n1CC(=O)c1ccc(Cl)cc1)n2C,inactive: 9.49%
